# Experimental data as given in ChEMBL document CHEMBL4888484, “Replenishing the malaria drug discovery pipeline: Screening and hit evaluation of the MMV Hit Generation Library 1 (HGL1) against asexual blood stage Plasmodium falciparum ,using a nano luciferase reporter read-out” (2022).
# The campaign covered roughly 150,000 compounds. About 540 (0.36%) showed an effect of 50% or more. This is one part of the list.
# System: Plasmodium falciparum
# Experiment: Primary screen in NF54 nanoGlo assay, in single point, at 2uM, 72h; a lower Z score goes with more inhibition
# Assay type: functional, Erythrocyte
# Settings: timepoint 72 hour
Compound,% Inhibition,Z score
Cc1cc(S(=O)(=O)N(CC#N)C(C)C)c(C)s1,-5%,0.65
COCCNc1c(-c2ccccc2)nc2sc(C(=O)NC3CCCC3)c(C)n12,-11%,1.1
CCCc1nc2c(C)cccn2c1NC(C)(C)CC(C)(C)C,6%,-0.63
CCCN1CC[C@@H]2N(C(=O)c3cc(C)n(CC)c3C)CCC[C@@]2(CO)C1,-4%,0.42
Cc1cc(CCNC(=O)c2ccc(Cl)cc2)on1,-10%,1.6
CN(CC(=O)Nc1ccc2c(c1)OCO2)C1CCCCC1,3%,-0.32
Cn1nc(-c2ccccc2)c(CN(Cc2ccco2)C[C@H](O)COCc2ccccc2)c1Oc1ccccc1,-13%,1.39
O=C1CCc2cc(S(=O)(=O)N3CCC(Cc4ccccc4)CC3)cc3c2N1CCC3,-18%,3.49
Cc1[nH]/c(=N\C(=O)c2csc(NCC(C)C)n2)sc1C,-3%,0.41
CCN(C[C@H]1CCCO1)C(=O)c1cc(NS(=O)(=O)CC)cc2nc(-c3ccccc3)n(C)c12,-11%,1.26
Cc1ccc(S(=O)(=O)N(C)C[C@H](C)c2nnn[nH]2)s1,-10%,0.81
COc1ccc2c(c1)C[C@H](NS(=O)(=O)Cc1ccccc1)CO2,-8%,1.13
C=CCCC(=O)Nc1ccc(O)cc1OC(F)(F)F,7%,-1.26
CCOC1CC(CC(=O)N[C@H]2CO[C@@H]2c2ccccc2)C1 (stereo partly drawn),-9%,1.04
C[C@H](O)CN1CCN(Cc2cn3ccccc3c2C#N)CC1,-13%,2.38
CC[C@H]1CCN1C(=O)C1(CF)CCOCC1,-5%,0.47
CN1CCN(CC(=O)N2CCC([C@@H](O)CCc3ccccc3)CC2)C1=O,2%,-0.32
Cc1ccc(Cc2nnn(CC(=O)N[C@@H](C)c3ccc(F)cc3)n2)cc1,-10%,1.3
CN(C(=O)c1cc(Br)cnc1C1CC1)c1nncs1,-18%,1.82
CCCn1ncnc1[C@H](C)NC(=O)Nc1cc(NC(=O)CC)ccc1F,-3%,0.6
CN(CC1(CO)CCC1)C(=O)c1cnc(C2CC2)nc1,19%,-2.57

Compound,% Inhibition,Z score
CC[C@H](C)NC(=O)CCCN1C(=O)CCn2nc(-c3cccn3C)cc21,-2%,0.47
CC(C)(C)C(=O)NC1CCC(C(=O)N2CC[C@H](CCO)C2)CC1 (stereo partly drawn),-10%,1.12
CC[C@@H](CO)NS(=O)(=O)Cc1ccc(Br)cc1,5%,-0.88
O=S(=O)(NCc1ccccn1)N1CCCCC1,11%,-1.08
CC(C)Oc1cccc(C(=O)[C@H]2CCCN(Cc3cn(CC(N)=O)c4ccccc34)C2)c1,-13%,1.22
Cc1nc(CC(N)=NOCC(=O)Nc2ccc(F)c(Cl)c2)cs1,-11%,1.34
CCO[C@@H](C)C(=O)N(C)Cc1cnc2ccccc2n1,-11%,1.39
CC1CCN(C2CC(=O)N(c3ccc(N4C(=O)CC(N5CCC(C)CC5)C4=O)cc3)C2=O)CC1 (stereo not drawn),-10%,1.37
O=C(Nc1ccc(N2CCn3c(nc4ccccc43)C2)cc1)c1ccc(F)cc1,34%,-1.63
CCC(CC)N(CCOC)C(=O)NC[C@@H](c1ccco1)N1CCCC1,-10%,1.43
CCC1(C(=O)NC(C)C2CCN(Cc3ccccc3)C2)CCOCC1 (stereo not drawn),-5%,0.61
Cc1ccc(C2CC(c3cccc4ccccc34)n3ncnc3N2)cc1 (stereo not drawn),-11%,1.7
C=CCN1CC[C@@]2(CCC1=O)CN(Cc1cc3ccccc3o1)CCN2C,14%,-1.97
O=C(c1ccc2ncsc2c1)N1C[C@@H]2CC[C@H]1CN(Cc1ccccn1)C2,-11%,1.69
Cn1c(N2CCC[C@H]2c2ccc3c(c2)OCCCO3)c(C#N)c(=O)n(C)c1=O,36%,-0.95
CC(CN1CCOCC1)NC(=O)N1CCCC1Cc1ccc(F)cc1 (stereo not drawn),16%,-2.08
Cc1cc(OCC(=O)Nc2ccc(N3CCCCC3)cc2)no1,30%,-3.87
CO[C@H]1CN(C2CCN(C(=O)NC(C)C)CC2)[C@H]1c1ccncc1,-13%,1.66
O=c1cc(CN2CCc3ccccc32)nc2ccccn12,-13%,1.19
O=C(Nc1ccccc1C(=O)N1CCC1)c1ccco1,-21%,2.01
N[C@@H]1C[C@@H]2CC(C(=O)NCc3ccnc(-c4ccccc4)c3)C[C@@H]21 (stereo partly drawn),-17%,2.72

Compound,% Inhibition,Z score
C=CC(C)ONC(=O)NC(c1ccccc1)C1(CO)CCC1 (stereo not drawn),-7%,0.92
CC[C@H](CO)NC(=O)NC(C)c1ccc(Br)cn1 (stereo partly drawn),-4%,0.64
Cc1ccc(C)c(-n2cnc(=O)n2[C@H]2CCN(C3CC3)C2=O)c1,31%,-5.97
CN(CC(O)C(F)(F)F)C(=O)NC1CCN(CC2CCCC2)C1 (stereo not drawn),2%,-0.2
Cn1c(CC(=O)Nc2cc(C3CCOCC3)[nH]n2)nnc1-c1ccccc1,0%,0.04
C[C@@H]1CN(c2ccnc3ccsc23)CC(C(N)=O)O1 (stereo partly drawn),3%,-0.34
CCN(CC)C(=O)NC[C@@H]1C[C@H](F)CN1C(=O)c1ccc(Cl)cc1O,-5%,0.83
C[C@@H](C1CC1)n1nccc1NCc1ccc(OCC2CC2)cc1,-11%,2.15
O=C(Nc1ccc2c(c1)OCO2)[C@@H](c1ccccc1)N(Cc1ccccc1)c1ccccc1,5%,-0.71
CCCN(C(=O)c1nn(C)c2ccccc2c1=O)C(C)C,-11%,1.38
CCc1nsc(N2CCCC3C(NC(=O)C(C)(F)F)C(C)(C)C32)n1 (stereo not drawn),16%,-2.01
CN1CCN(CCN(Cc2ccc(Br)cc2F)C(=O)[C@H]2CCOC2)CC1,-7%,0.6
CCCCCOC(=O)Nc1nnc(C)s1,-21%,2.77
CN(C[C@H]1CCCCO1)C(=O)c1ccc(CN2CCc3ccccc3C2)o1,-8%,1.57
Cc1nccn1CC1(CNC(=O)c2ccc3c(=O)n(C)cnc3c2)CC1,0%,-0.07
C[C@@H](CNC(=O)c1ccc(C(F)F)c(F)c1)S(N)(=O)=O,-15%,1.61
O=S(=O)(c1cccs1)N1CCC(Oc2ncnc3c2CCOCC3)CC1,-5%,0.81
CC(C)c1ccccc1S(=O)(=O)NCC(=O)NC(C)(C)C,-1%,0.12
COc1ccc(CC(C)CNC(=O)N(C)C2CCN(C)CC2C)cc1 (stereo not drawn),10%,-0.94
O=C(Nc1ccc(CCN2CCC(O)CC2)cc1)c1ccc(F)cc1,-15%,1.49
CN(Cc1cccs1)C(=O)Cn1cnc2c1CCNC21CCOCC1,-5%,0.79

Compound,% Inhibition,Z score
Cc1n[nH]c(C)c1CCNc1cc([C@H]2C[C@H](N)C2)nc(C2CC2)n1,3%,-0.48
CN1CC2(CCN(C(=O)c3ccoc3)CC2)C[C@@H](c2ccccc2)C1=O,-2%,0.44
CCOc1ccccc1-c1cc(-c2c(C)nn(C)c2C)nc(CC(=O)NC)n1,-6%,0.81
COc1cc2c(cc1OC)CN(C(=O)c1cccc(NS(=O)(=O)c3cccc(Cl)c3)c1)CC2,-9%,1.24
O=C(Nc1ccc(-c2ccccc2C(F)(F)F)s1)C(F)(F)F,-36%,4.24
O=S1(=O)CCC[C@H](CNc2cccc3c2OCO3)C1,-3%,0.29
CCCN(C[C@H]1CCOC1)C(=O)NC,-3%,0.42
CC1CN(C(=O)c2ccc(-n3cccn3)nc2)CC(C)O1 (stereo not drawn),-1%,0.08
CC1(C)NC(=O)N(Cc2noc(-c3ccco3)n2)C1=O,4%,-0.45
Cc1cc(NS(=O)(=O)NC(C)(C)C)no1,4%,-0.81
COc1ncccc1CNC(=O)CCCN(C)C(=O)OC(C)(C)C,-2%,0.33
CCCOc1ccc(-c2ccc(-c3noc(-c4c(-c5ccccc5Cl)noc4C)n3)cc2)cc1,-4%,0.42
O=S1(=O)N[C@@H]2CN(CCCc3ccccc3)C[C@@H]2Oc2ccccc21,1%,-0.09
CN1CCN(C(=O)CCc2ccncc2)C[C@H]1C(C)(C)C,-2%,0.31
CC(C)CN1CCN([C@H]2CCOC3(CCN(S(=O)(=O)c4ccccc4)CC3)C2)CC1,-19%,2.05
Cc1cc(O)nc(NC(=O)CCc2ccc(=O)n(C)n2)n1,8%,-0.99
Cc1cc(OCc2c(F)cccc2Cl)nc(N(C)C)n1,2%,-0.18
CCOC1CC(CCNC(=O)Cn2ccnn2)C1 (stereo not drawn),-10%,1.46
O=C(O)c1ccc(CN2Cc3nc[nH]c3C[C@H]2c2nc(-c3ccc4ccccc4c3)no2)cc1,-2%,0.33
Cc1nnc(NC(=O)C2CCCC2)n1C,-6%,0.52
N#Cc1ccc(-c2nc(-c3ccc4c(c3)nnn4CCC(=O)N3CCCC3)no2)cc1,-12%,1.57
